The results in this text go back to the supplement of paper PMC11417369.

± gives the standard deviation of the averaged measurements. The list shows a part of the results.

The assay has as its system PfAP2-LT AP2 domain (GST-tagged). As to the kind of experiment: gcPBM binding intensity (ln(normalized median fluorescence intensity)); higher = stronger DNA binding. In outline:
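Plasmodium falciparum DNA-binding domains carrying a GST tag were expressed in E. coli and applied for 1 h, at about 25 μg on average, to an Agilent 4 × 180k array. The array held primer-extended double-stranded 36-bp intergenic genomic probes together with negative controls, and binding took place in 1× PBS with 1% milk, 0.2 mg/ml BSA, 0.5% salmon testes DNA and 0.03% Triton X-100. An Alexa488 anti-GST antibody detected bound protein, and the array was scanned at 488 nm. Binding intensity is taken as the highest Masliner-normalised natural-log median intensity across replicate spots of either probe orientation.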
On to “AGGTTATAAATAAATACACACATACAAAAATATGAC [CACACA_site4773]”, for which the “gcPBM binding intensity (ln)” value turned out to be 9.23 ± 0.38.

As to “AATCTGATCTTTTAAAGTACACAAAAAAAAAAAAAA [XGTACX_site115]”, the “gcPBM binding intensity (ln)” value amounted to 8.26 ± 0.47. “AAAAAAAAAAAAAAAAGTACGTATCAAAGCATCAAA [XGTACX_site880]”: the “gcPBM binding intensity (ln)” value was found to be 8.79 ± 0.5. In the case of “GTTTAACTGTTTTATACACACAATGTATACAATAAA [CACACA_site2959]”, the “gcPBM binding intensity (ln)” value turned out to be 8.91 ± 0.38. For the sequence “CATATATATATATGTACACACATTAATAAAAAAAAA [CACACA_site3230]”, the “gcPBM binding intensity (ln)” value turned out to be 8.95 ± 0.39. Take “AATGAACACCTAAAATGTACGTACAAATATATTTTA [XGTACX_site7067]”: the “gcPBM binding intensity (ln)” value was 8.98 ± 0.36. As for “TTCTTATATATATACACACACAAAATATCTACAATG [CACACA_site736]”, the “gcPBM binding intensity (ln)” value amounted to 9.27 ± 0.39.

Take “CCAAAATACATTAAACGTACATGTCCTAATAAGATA [XGTACX_site21]”: the “gcPBM binding intensity (ln)” value came to 8.79 ± 0.38. In the case of “TTGTTTTTATAAATATTATTACAATGAAAAAAAAAA [TGCATGCA_negctrl_site185]”, the “gcPBM binding intensity (ln)” value amounted to 8.11 ± 0.58.

Turning to “TAATATATATTATTATGTACATATATTGATTCCTTG [XGTACX_site6830]”, the “gcPBM binding intensity (ln)” value was 8.85 ± 0.47. On to “TATTTATTAATATGTACACACATCAACCATATTAAC [CACACA_site7001]”, for which the “gcPBM binding intensity (ln)” value turned out to be 9.04 ± 0.29. On to “ATATAATCCTTTCAAACACACAAAATATAATTAATA [CACACA_site1829]”, for which the “gcPBM binding intensity (ln)” value worked out at 8.77 ± 0.42. Take “ATGATGGAATATTCTACACACAATTAATAAACAAAC [CACACA_site1045]”: the “gcPBM binding intensity (ln)” value turned out to be 9.21 ± 0.49. Take “CTATATATTTTTCATTGTACACAAATTAAAGAAAAA [XGTACX_site8385]”: the “gcPBM binding intensity (ln)” value is 8.19 ± 0.36. Turning to “TTTTTTTATAAATTCACACAAAATATAATATTAAAA [CACACA_site4766]”, the “gcPBM binding intensity (ln)” value was determined as 8.05 ± 0.39. With “AATGTCATCATATTCATATATATTTATTTCTTTTTG [GTGCAC_negctrl_site500]”, the “gcPBM binding intensity (ln)” value was 8.77 ± 0.44. For “GGTTATAACCCACATGCACACGTAAATAAATATTAT [CACACA_site5992]”, the “gcPBM binding intensity (ln)” value worked out at 9.13 ± 0.4. For “ATAAATAATAAGGTTACAACAAACACACAAAGGAAT [XGTACX_negctrl_site611]” the value was 9.29 ± 0.35; for “TAAAAAAAAAAGTATACACACTTCTTAATGTCAACA [CACACA_site4818]”, 8.59 ± 0.54.

Turning to “TGTCCAATTTATTGTGCACACCTCAAAAGTGGGTAA [CACACA_site3826]”, the “gcPBM binding intensity (ln)” value turned out to be 8.88 ± 0.4. On to “GATATATAGGTATTTACACACAATGTGAGATCTATA [CACACA_site7575]”, for which the “gcPBM binding intensity (ln)” value was found to be 9.04 ± 0.38. “AAAGACTTTTTATGAGCACACACATATATTATGGAG [CACACA_site8254]”: the “gcPBM binding intensity (ln)” value was 9.01 ± 0.35. For the sequence “AGATAAAATAAATACACACACATAAATACGTACAAA [CACACA_site4739]”, the “gcPBM binding intensity (ln)” value is 9.6 ± 0.38. Consider “TTTCTATAATATATATGTACATATATAATATGTCGT [XGTACX_site3676]”, for which the “gcPBM binding intensity (ln)” value was determined as 8.95 ± 0.43.
